The term Ki denotes a dissociation constant, usually derived from enzyme kinetics or from competition with a known ligand. A low value points to a stronger hold on the target.

The values below come from patent publication US7160888B2, “[1,8]naphthyridin-2-ones and related compounds for the treatment of schizophrenia” (Warner Lambert Company LLC, priority 2003, dated 2007).

One assay deals with dopamine D2 receptor (Homo sapiens, UniProt P14416). Nature of the assay: biochemical. The note with it: D2 Ki (nM), Table 1; 0.4 nM [3H]spiperone, CHO-hD2L membranes.
Sequence of UniProt P14416 (P14416 whole entry): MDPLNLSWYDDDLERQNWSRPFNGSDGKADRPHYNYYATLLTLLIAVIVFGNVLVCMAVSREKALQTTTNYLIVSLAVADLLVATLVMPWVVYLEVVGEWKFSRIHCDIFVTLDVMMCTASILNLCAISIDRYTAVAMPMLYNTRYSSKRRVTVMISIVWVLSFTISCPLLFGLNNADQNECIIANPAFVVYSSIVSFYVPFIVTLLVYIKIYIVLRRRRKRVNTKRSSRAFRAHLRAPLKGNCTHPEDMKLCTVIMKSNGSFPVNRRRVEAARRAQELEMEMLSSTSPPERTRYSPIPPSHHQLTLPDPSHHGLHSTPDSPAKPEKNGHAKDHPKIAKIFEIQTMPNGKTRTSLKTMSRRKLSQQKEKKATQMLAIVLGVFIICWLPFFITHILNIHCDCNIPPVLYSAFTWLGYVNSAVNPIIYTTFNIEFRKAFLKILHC
`O=C1CCc2ccc(OCCCCN3CCN(c4cccc5c4C(=O)C(F)(F)CC5)CC3)nc2N1` [Example A54, 7-{4-[4-(7,7-Difluoro-8-oxo-5,6,7,8-tetrahydro-naphthalen-1-yl)-piperazin-1-yl]-butoxy}-3,4-dihydro-1H-[1,8]naphthyridin-2-one] had a Ki of 0.6 nM. The same measure, in the same setting: the same measure for `O=C1CCc2ccc(OCCCCN3CCN(c4cccc5c4CC(F)(F)CC5)CC3)nc2N1` [Example A55, 7-{4-[4-(7,7-Difluoro-5,6,7,8-tetrahydro-naphthalen-1-yl)-piperazin-1-yl]-butoxy}-3,4-dihydro-1H-[1,8]naphthyridin-2-one]: 0.2 nM. In turn, `O=C1CCc2cccc(N3CCN(CCCCOc4ccc5c(n4)NC(=O)CC5)CC3)c2C1` [Example A56, 7-{4-[4-(7-Oxo-5,6,7,8-tetrahydro-naphthalen-1-yl)-piperazin-1-yl]-butoxy}-3,4-dihydro-1H-[1,8]naphthyridin-2-one] had a Ki of 2.5 nM. Compared with the last molecule, the Ki is about 12-fold higher. In turn, `O=C1CCc2ccc(OCCCCN3CCN(c4cccc5c4CC(O)CC5)CC3)nc2N1` (stereo not shown) [Example A57, 7-{4-[4-(7-Hydroxy-5,6,7,8-tetrahydro-naphthalen-1-yl)-piperazin-1-yl]-butoxy}-3,4-dihydro-1H-[1,8]naphthyridin-2-one] returned a Ki of 9.4 nM. Still for that read-out and setting: the same measure for `O=C1CCc2ccc(OCCCCN3CCN(c4cccc5c4CCCC5=O)CC3)nc2N1` [Example A58, 7-{4-[4-(5-Oxo-5,6,7,8-tetrahydro-naphthalen-1-yl)-piperazin-1-yl]-butoxy}-3,4-dihydro-1H-[1,8]naphthyridin-2-one]: 30.4 nM; for `O=C1CCc2ccc(OCCCCN3CCN(c4cccc5c4CCCC5(F)F)CC3)nc2N1` [Example A59, 7-{4-[4-(5,5-Difluoro-5,6,7,8-tetrahydro-naphthalen-1-yl)-piperazin-1-yl]-butoxy}-3,4-dihydro-1H-[1,8]naphthyridin-2-one]: 4.5 nM. The molecule `O=C1Cc2cccc(N3CCN(CCCCOc4ccc5c(n4)NC(=O)CC5)CC3)c2C1` [Example A61, 7-{4-[4-(2-Oxo-indan-4-yl)-piperazin-1-yl]-butoxy}-3,4-dihydro-1H-[1,8]naphthyridin-2-one] registered a Ki of 2.2 nM. For the molecule `O=C1CCc2ccc(OCCCCN3CCN(c4cccc5c4CC(F)(F)C5)CC3)nc2N1` [Example A62, 7-{4-[4-(2,2-Difluoro-indan-4-yl)-piperazin-1-yl]-butoxy}-3,4-dihydro-1H-[1,8]naphthyridin-2-one], the Ki turned out to be 0.9 nM. This Ki is about 2.4-fold lower than that of the molecule before. Regarding `O=C1CCc2ccc(OCCCCN3CCN(c4cccc5c4CCCCC5)CC3)nc2N1` [Example A63, 7-{4-[4-(6,7,8,9-Tetrahydro-5H-benzocyclohepten-1-yl)-piperazin-1-yl]-butoxy}-3,4-dihydro-1H-[1,8]naphthyridin-2-one], the affinity, expressed as Ki, was 35 nM. This Ki lies about 39-fold higher than the previous one. For the molecule `O=C1CCc2ccc(OCCCCN3CCC(c4cccc5ccccc45)CC3)nc2N1` [Example A64, 7-[4-(4-Naphthalen-1-yl-piperidin-1-yl)-butoxy]-3,4-dihydro-1H-[1,8]naphthyridin-2-one], the Ki turned out to be 3.5 nM. Against the preceding molecule, the Ki is about 10-fold lower. On the same count and under the same terms, to `O=C1CCc2ccc(OCCCCN3CCN(c4cccc5cc(F)c(F)cc45)CC3)nc2N1` [Example A72, 7-{4-[4-(6,7-Difluoro-naphthalen-1-yl)-piperazin-1-yl]-butoxy}-3,4-dihydro-1H-[1,8]naphthyridin-2-one] belongs 3.5 nM.

Molecule `COc1ccc2cccc(N3CCN(CCCCOc4ccc5c(n4)NC(=O)CC5)CC3)c2c1` [Example A73, 7-{4-[4-(7-Methoxy-naphthalen-1-yl)-piperazin-1-yl]-butoxy}-3,4-dihydro-1H-[1,8]naphthyridin-2-one] returned an inhibition constant (Ki) of 1 nM.

The molecule `O=C1CCc2ccc(OCCCCN3CCN(c4cccc5ccc(Cl)cc45)CC3)nc2N1` [Example A74, 7-{4-[4-(7-Chloro-naphthalen-1-yl)-piperazin-1-yl]-butoxy}-3,4-dihydro-1H-[1,8]naphthyridin-2-one] registered a Ki of 4 nM. Against the preceding molecule, the Ki is about 4-fold higher. In turn, `O=C1CCc2ccc(OCCCCN3CCN(c4cccc5c(Cl)cccc45)CC3)nc2N1` [Example A75, 7-{4-[4-(5-Chloro-naphthalen-1-yl)-piperazin-1-yl]-butoxy}-3,4-dihydro-1H-[1,8]naphthyridin-2-one] returned a Ki of 23.8 nM. On the same count and under the same terms, the same measure for `O=C1CCc2ccc(OCCCCN3CCN(c4cccc5cc(Cl)ccc45)CC3)nc2N1` [Example A76, 7-{4-[4-(6-Chloro-naphthalen-1-yl)-piperazin-1-yl]-butoxy}-3,4-dihydro-1H-[1,8]naphthyridin-2-one]: 8.7 nM; for `O=C1CCc2ccc(OCCCCN3CCN(c4cccc5cccc(Cl)c45)CC3)nc2N1` [Example A77, 7-{4-[4-(8-Chloro-naphthalen-1-yl)-piperazin-1-yl]-butoxy}-3,4-dihydro-1H-[1,8]naphthyridin-2-one]: 10.8 nM.

`CC(=O)c1ccc2cccc(N3CCN(CCCCOc4ccc5c(n4)NC(=O)CC5)CC3)c2c1` [Example A78, 7-{4-[4-(7-Acetyl-naphthalen-1-yl)-piperazin-1-yl]-butoxy}-3,4-dihydro-1H-[1,8]naphthyridin-2-one] had an inhibitory constant (Ki) of 1.4 nM. `CC(=O)c1ccc2c(N3CCN(CCCCOc4ccc5c(n4)NC(=O)CC5)CC3)cccc2c1` [Example A79, 7-{4-[4-(6-Acetyl-napthalen-1-yl)-piperazin-1-yl]-butoxy}-3,4-dihydro-1H-[1,8]naphthyridin-2-one]: affinity was put at a Ki of 15 nM. As for `CC(=O)c1cccc2c(N3CCN(CCCCOc4ccc5c(n4)NC(=O)CC5)CC3)cccc12` [Example A80, 7-{4-[4-(5-Acetyl-naphthalen-1-yl)-piperazin-1-yl]-butoxy}-3,4-dihydro-1H-[1,8]naphthyridin-2-one], the affinity, expressed as Ki, was 23.5 nM. Same read-out and setting: the same measure for `CC(=O)c1ccc(N2CCN(CCCCOc3ccc4c(n3)NC(=O)CC4)CC2)c2ccccc12` [Example A81, 7-{4-[4-(4-Acetyl-naphthalen-1-yl)-piperazin-1-yl]-butoxy}-3,4-dihydro-1H-[1,8]naphthyridin-2-one]: 24.7 nM; for `CC(=O)c1ccc2ccccc2c1N1CCN(CCCCOc2ccc3c(n2)NC(=O)CC3)CC1` [Example A82, 7-{4-[4-(2-Acetyl-naphthalen-1-yl)-piperazin-1-yl]-butoxy}-3,4-dihydro-1H-[1,8]naphthyridin-2-one]: 28.1 nM; for `N#Cc1ccc2cccc(N3CCN(CCCCOc4ccc5c(n4)NC(=O)CC5)CC3)c2c1` [Example A83, 8-{4-[4-(7-Oxo-5,6,7,8-tetrahydro-[1,8]naphthyridin-2-yloxy)-butyl]-piperazin-1-yl}-naphthalene-2-carbonitrile]: 2.5 nM. For `CC(=O)Nc1ccc2cccc(N3CCN(CCCCOc4ccc5c(n4)NC(=O)CC5)CC3)c2c1` [Example A84, N-(8-{4-[4-(7-Oxo-5,6,7,8-tetrahydro-[1,8]naphthyridin-2-yloxy)-butyl]-piperazin-1-yl}-naphthalen-2-yl)-acetamide], affinity was put at a Ki of 3 nM. With `O=c1ccc2ccc(OCCCCN3CCN(c4cccc(C(F)(F)F)c4Cl)CC3)nc2[nH]1` [Example B2, 7-{4-[4-(2-Chloro-3-trifluoromethyl-phenyl)-piperazin-1-yl]-butoxy}-1H-[1,8]naphthyridin-2-one], the Ki was 2.5 nM.

The same assay, now with this note: D2 Ki (nM), Table 2; 0.4 nM [3H]spiperone, CHO-hD2L membranes.
`O=c1ccc2ccc(OCCCCN3CCN(c4cccc5c4OCCC5)CC3)nc2[nH]1` [Example B1′, 7-[4-(4-Chroman-8-yl-piperazin-1-yl)-butoxy]-1H-[1,8]naphthyridin-2-one] had a Ki of 1 nM. This counts as single-digit nanomolar.
